# The whole screen tested about 150,000 compounds, of which about 540 (0.36%) showed an effect of 50% or more. Some of the results follow.
# Tested on: Plasmodium falciparum
# Assay: Primary screen in NF54 nanoGlo assay, in single point, at 2uM, 72h; a lower Z score goes with more inhibition
# Assay type: functional, Erythrocyte
# Conditions: timepoint 72 hour
SMILES,% Inhibition,Z score
CC(C)n1ccc(CC(=O)N2CCC[C@H](c3ccnn3C)C2)n1,1%,-0.12
CCNC(=O)c1ccc(-c2ccc(=O)[nH]c2)cc1,-8%,1.09
c1cc(-c2cc(N3C[C@H]4CCC[C@@H]3C4)n3nccc3n2)ccn1,-10%,1.34
CCN1CCN(C(=O)C2CCN(S(=O)(=O)c3cc(-c4noc(C5CCC5)n4)sc3C)CC2)CC1,-18%,1.6
COc1c(N)ncnc1N1CC[C@H](C2CCOCC2)C1,-14%,2.76
COC[C@@]12CCN(C(=O)Cc3ccccc3F)C[C@@H]1CN(S(C)(=O)=O)C2,-15%,1.81
CC(C)C[C@H](NC(=O)Nc1ccn(C)n1)C(=O)OC(C)C,0%,0.02
Cc1nc(NC(=O)COC2CCCCC2)sc1C,-3%,0.65
CCNC(=O)[C@@H]1CC[C@](C)(C(=O)Nc2onc(CC)c2C)C1(C)C,-17%,1.56
CCCCS(=O)(=O)N1CC[C@H](CNc2nccc(C(F)F)n2)C1,-1%,0.19
CC(C)c1ccc(O[C@@H](C)CNC(=O)N2CCC(O)(C3CC3)CC2)cc1,-1%,0.08
FC(F)(F)c1ccc(N2CCC(c3nc4ccccc4[nH]3)CC2)nn1,-14%,1.37
CN(C(=O)c1cn(C)nc1C(F)F)C1CN(c2ccc3nncn3n2)C1,2%,-0.19
O=C(c1cnccn1)N1CCc2ncc(C(F)(F)F)cc2C1,-5%,0.97
CCN1CCN([C@H]2CCN(c3ccnc4c(F)cc(Cl)cc34)C2)CC1,11%,-1.82
O=c1c2ccccc2nnn1Cc1ccncc1,5%,-0.66
CC(C)NC(=O)c1csc(COc2ccc3c(c2)[C@H](c2ccc(F)cc2)N(C(=O)c2ccco2)CC3)n1,-6%,0.99
COc1c(Br)cccc1CNC(=O)C#Cc1ccccc1,5%,-0.58
CCC(CC)C1CC(NC(=O)c2cccnc2C)CCO1 (stereo not given),-7%,0.83
N#Cc1nccn1Cc1coc(-c2ccc(Br)cc2)n1,1%,-0.14
Nc1ccc(OCc2n[nH]c(C3CC3)n2)cc1,-8%,1.08
C=Cc1cc(OC)c(OCc2ccn(C(C)C)n2)c(OC)c1,-4%,0.36
O=C(c1cccnc1Oc1ccc(F)cc1Br)N1CCCNCC1,-8%,1.12
Cc1ccc(-n2ncc(Oc3ccc4c(c3)OCO4)c(Nc3ccc(C(=O)NCc4ccncc4)cc3)c2=O)cc1,6%,-0.81
CCCc1cc(N2CCN(C(=O)Cc3ccc(F)cc3)CC2)nc2nnc(CC)n12,-15%,1.92
O=C(N[C@H]1CC[C@@H]2CCC[C@@H]21)c1ncoc1C1CC1,-5%,0.75
CC1CN(c2ncnc3c2ncn3CC2(O)CCOCC2)CC(C2CC2)O1 (stereo not given),-12%,1.56
COC1CCC(NC(=O)c2ccnc3c2ncn3C)CC1 (stereo not given),-10%,1.85

SMILES,% Inhibition,Z score
C#CC(C)(C)N1CCN(C(=O)OC(C)(C)C)CC1,4%,-0.79
CC1N[C@H](C(=O)O)Cc2c1[nH]c1ccccc21 (stereo not given in full),-11%,1.01
O=C(c1cnccn1)N1CCC(Cc2n[nH]c(=O)n2-c2ccccc2F)CC1,2%,-0.28
CN1C(=O)N[C@]2(CCN(c3ccccc3S(C)(=O)=O)C2)C1=O,-11%,1.04
CCC(CC)(CO)CN(C)S(=O)(=O)c1cc(-c2ccn[nH]2)oc1C,3%,-0.51
Cc1nc(N)nc(C)c1C(=O)N[C@H](CO)Cc1ccc(O)cc1,-2%,0.15
Cc1cnc(NCc2ccc3nc(C)sc3c2)s1,2%,-0.3
CNc1ccccc1C(=O)OC1OC(C)C(O)C(O)C1O (stereo not given),26%,-2.96
Cn1cncc1-c1noc(C2CCC(c3ccccc3)CC2)n1 (stereo not given),-11%,1.9
O=C(C[C@H]1CCS(=O)(=O)C1)Nc1nc2ccccc2s1,-9%,1.14
CCC(C(=O)Nc1ncccc1C)(C(F)(F)F)C(F)(F)F,-9%,1.69
Cc1noc(CN(C)c2nccc(N3CCN[C@@H]4CS(=O)(=O)C[C@@H]43)n2)n1,-16%,2.21
COc1ccc(CN2CCCC23CCN(c2cccc(C)n2)CC3)cc1O,-4%,0.82
O=C(Nc1ccsc1C(=O)NCc1ccccc1)c1cnccn1,3%,-0.54
Cc1nc(-c2scnc2C)n(CC(C)(C)O)n1,-3%,0.34
COC(=O)Nc1nc(-c2ccccc2)c(-c2ncc(C)c(OC)c2C)s1,-5%,0.59
CCOc1ccc(CN2CC[C@H](CO)[C@H](N(C)C)C2)cc1,2%,-0.34
Cc1c(C(=O)N2CCN(C3CCCCC3)CC2)n(C)c2ccc(F)cc12,4%,-0.61
CC1(C)CNCc2cnn(-c3ccccc3F)c2C1,3%,-0.5
COCCOCC(=O)N(Cc1ccccn1)c1ccc(Cl)cc1,-9%,0.95
Cc1oc2ccn(Cc3cccc(F)c3)c(=O)c2c1C(=O)N1CCN(C(C)C)CC1,-20%,2.9
CC[C@H](C)N(Cc1csc(COc2ccccc2OC)n1)C(=O)c1ccc(OC)cc1,-15%,2.03
O=C([C@H]1C[C@H](Oc2ccccc2)CN1C(=O)Cc1cccc(F)c1)N1CCOCC1,-6%,1.22
Cc1cnc(CN(CC(C)C)c2cccc(O)c2)cn1,-15%,1.71
Cn1ncc2c1CCCN(c1nccn3nc(C(F)(F)F)cc13)C2,-10%,1.44
CCc1ncsc1N1C(=O)[C@@H](C)N(C)C1=O,-18%,2.88
Cc1nc(C(=O)N[C@H](c2ccccc2)C2(CO)CCOCC2)no1,-4%,0.49

# From ChEMBL document CHEMBL4888484, “Replenishing the malaria drug discovery pipeline: Screening and hit evaluation of the MMV Hit Generation Library 1 (HGL1) against asexual blood stage Plasmodium falciparum ,using a nano luciferase reporter read-out” (2022)
